This is one part of the list. At the low end of the ranking the order means little.

Here are results for 23 sequences from article PMC6602471.

This assay concerns the target T1, ELK1 (UniProt P19419).
T1 sequence: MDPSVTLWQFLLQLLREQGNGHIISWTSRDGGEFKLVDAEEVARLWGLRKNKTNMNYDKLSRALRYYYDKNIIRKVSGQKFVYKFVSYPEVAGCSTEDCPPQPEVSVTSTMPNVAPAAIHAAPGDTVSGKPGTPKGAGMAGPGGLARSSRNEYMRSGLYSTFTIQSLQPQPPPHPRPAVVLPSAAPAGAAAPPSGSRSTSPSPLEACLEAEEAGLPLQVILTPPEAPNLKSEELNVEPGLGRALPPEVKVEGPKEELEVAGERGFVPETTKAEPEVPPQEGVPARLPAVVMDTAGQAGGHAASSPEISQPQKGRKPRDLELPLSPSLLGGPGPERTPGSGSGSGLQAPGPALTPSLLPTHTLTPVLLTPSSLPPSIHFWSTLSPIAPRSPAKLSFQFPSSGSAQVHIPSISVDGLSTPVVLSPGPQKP
Briefly: custom PBM. The settings on record: custom protein-binding microarray; buffer, salt, pH and temperature not stated; high values mean tight binding; double strand, one strand shown.
With “TCCGGCTACCAGCTCCACACACTTCAGGCCTTGTAGGTCTTGATTCGCTTGACGCTGCTG”, the binding signal (log fluorescence intensity) came out at 8.94. As to “TAAAGGGATGACGGTTGTGGTAGTTCCGGGTATTAAGTCTTGATTCGCTTGACGCTGCTG”, the binding signal (log fluorescence intensity) came to 11. The same measure for “GGAAAAAGGCCCAGGGTAACACCGGAAGTGGGCTTCGTCTTGATTCGCTTGACGCTGCTG”: 11.1; for “TGTCGGGTTAGGGAATGTAGATCACGTGAATGAAAAGTCTTGATTCGCTTGACGCTGCTG”: 8.85; for “GGAAAAAGGCCCAGGGTCACACCGGAAGTGGGCTTAGTCTTGATTCGCTTGACGCTGCTG”: 10.9. The figure for “CACAATTTTTACAGTAATGAAGCACGCGTAACTCCTGTCTTGATTCGCTTGACGCTGCTG” is 8.77; for “GCTGCTGCGGTTCATACCCCACCGGATGTGACCCCGGTCTTGATTCGCTTGACGCTGCTG” it is 10.3. The figure for “CTGGGATTTGACCCAACTCTGCCACGTGGGTCGTTTGTCTTGATTCGCTTGACGCTGCTG” is 9.02; for “CTGGGACTTGACCCAACTCTGCCTCGTGGGTCGTTTGTCTTGATTCGCTTGACGCTGCTG” it is 8.82; for “GTGTATAGGATCCCAACCAACACACGTGTTAAAATGGTCTTGATTCGCTTGACGCTGCTG” it is 8.81. “TGTCGGGTAAAGGAATGTAGATCACGTGAATGAAAAGTCTTGATTCGCTTGACGCTGCTG”: the binding signal (log fluorescence intensity) is 8.9. The figure for “GGAAAAAGGCCCAGGGTAACACCGGTAGTGGGCTTAGTCTTGATTCGCTTGACGCTGCTG” is 9.4; for “CAGCAAAGGACTTCTTCCCTGAAGCAATTGATAACCGTCTTGATTCGCTTGACGCTGCTG” it is 8.93. The figure for “TCCGGCTACCAGCTCCTCCCACTTCAGGCCTTGTAGGTCTTGATTCGCTTGACGCTGCTG” is 8.94; for “CGGAAGTGTCGTAAACGTCGGATATCCGGTTTTTCTGTCTTGATTCGCTTGACGCTGCTG” it is 12.5.

Regarding “GCTGCTGCGATGCATACCCCACCGGATGTGACCCCGGTCTTGATTCGCTTGACGCTGCTG”, the binding signal (log fluorescence intensity) is 10.3. The figure for “TACTGACTTAGATATGCGAATGCACATGAATAGACCGTCTTGATTCGCTTGACGCTGCTG” is 8.89; for “CAGCATAGGACTTCTTCCCTGTAGCAATTGATAACCGTCTTGATTCGCTTGACGCTGCTG” it is 8.93; for “TACTGACTTATATATGCGAATGCAAATGAATAGACCGTCTTGATTCGCTTGACGCTGCTG” it is 8.75.

Take “CGGAAGTGTCGTAAACGTCGGTTATCCGGTTCTTCTGTCTTGATTCGCTTGACGCTGCTG”: the binding signal (log fluorescence intensity) amounted to 10.1. The same measure for “AGGAAGTGTCGTAAACGTCGGATATCCGGTTCTTCTGTCTTGATTCGCTTGACGCTGCTG”: 12.3; for “TACTGACTTATATATGCGAATGCACATGAGTAGACCGTCTTGATTCGCTTGACGCTGCTG”: 8.82. Turning to “GATTAATTTCTGCGCTTATTCGCACGTGCCATAACAGTCTTGATTCGCTTGACGCTGCTG”, the binding signal (log fluorescence intensity) stood at 8.83.
